Consider 13 molecules from patent publication US20230250147A1, “GLP-1R AGONISTIC PEPTIDES WITH REDUCED ACTIVITY” (SANOFI, priority 2020, published 2023).

As a reminder, the EC50 is the concentration that produces a half-maximal response.

Format in all cases: cell-based
Experiment [1] deals with T1, Human GLP-1R (Homo sapiens, UniProt P43220).
T1 construct: expressed in transfected cells; host or cells: HEK-293
Kind of experiment: HTRF cAMP assay in HEK-293 cells, human GLP-1R.

Experiment [2] has as its target T2, Mouse GLP-1R (Mus musculus, UniProt O35659).
T2 construct: expressed in transfected cells; host or cells: HEK-293
T2 sequence (O35659 22-463): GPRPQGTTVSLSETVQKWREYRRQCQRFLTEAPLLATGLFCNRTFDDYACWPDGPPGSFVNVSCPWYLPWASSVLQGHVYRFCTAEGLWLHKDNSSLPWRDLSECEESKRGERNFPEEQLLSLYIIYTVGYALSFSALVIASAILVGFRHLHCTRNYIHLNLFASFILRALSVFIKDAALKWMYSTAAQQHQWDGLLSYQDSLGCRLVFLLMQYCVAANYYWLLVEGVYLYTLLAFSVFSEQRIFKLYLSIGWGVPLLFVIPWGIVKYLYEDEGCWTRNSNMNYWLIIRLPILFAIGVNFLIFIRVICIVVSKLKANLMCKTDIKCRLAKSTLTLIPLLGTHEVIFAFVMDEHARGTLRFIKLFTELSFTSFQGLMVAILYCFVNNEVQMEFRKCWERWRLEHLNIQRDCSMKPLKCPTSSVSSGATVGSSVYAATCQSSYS
Briefly: HTRF cAMP assay in HEK-293 cells, mouse GLP-1R. The procedure: (§1) Recombinant HEK-293 cells were grown in T175 culture flasks placed at 37° C. to near confluence in medium (DMEM with 10% FBS) and collected in 2 mL vials in cell culture medium containing 10% DMSO in concentrations of 1-5×10^7 cells/mL. Each vial contained 1.8 mL cell suspension. The vials were slowly frozen to −80° C. in an isopropanol chamber, and then transferred to liquid nitrogen for long term storage.
(§2) Prior to their use, frozen cells were thawed quickly at 37° C., washed with 20 mL cell buffer (1×HBSS; 20 mM HEPES, 0.1% BSA) and centrifuged for 5 minutes at 900 rpm. Cells were resuspended in assay buffer (cell buffer plus 2 mM IBMX) and adjusted to a cell density of 1×10^6 cells/mL. For measurement, 5 μL cell suspension (final 5×10^3 cells/well) and 5 μL of test compound were added to a well of a 384-well plate, followed by incubation for 30 minutes at room temperature. […] The cAMP content of cells was determined using a kit from Cisbio Corp. (cat. no. 62AM4PEC) based on Homogenous Time Resolved Fluorescence (HTRF).
(In TR-FRET formats the signal depends on donor and acceptor labels being close together.)

Experiment [3] addresses T3, Monkey GLP-1R (Macaca fascicularis, UniProt F8V479).
T3 construct: expressed in transfected cells; host or cells: HEK-293
Kind of experiment: HTRF cAMP assay in HEK-293 cells, monkey GLP-1R. The procedure:
as §1, §2

T3 sequence (F8V479 24-463): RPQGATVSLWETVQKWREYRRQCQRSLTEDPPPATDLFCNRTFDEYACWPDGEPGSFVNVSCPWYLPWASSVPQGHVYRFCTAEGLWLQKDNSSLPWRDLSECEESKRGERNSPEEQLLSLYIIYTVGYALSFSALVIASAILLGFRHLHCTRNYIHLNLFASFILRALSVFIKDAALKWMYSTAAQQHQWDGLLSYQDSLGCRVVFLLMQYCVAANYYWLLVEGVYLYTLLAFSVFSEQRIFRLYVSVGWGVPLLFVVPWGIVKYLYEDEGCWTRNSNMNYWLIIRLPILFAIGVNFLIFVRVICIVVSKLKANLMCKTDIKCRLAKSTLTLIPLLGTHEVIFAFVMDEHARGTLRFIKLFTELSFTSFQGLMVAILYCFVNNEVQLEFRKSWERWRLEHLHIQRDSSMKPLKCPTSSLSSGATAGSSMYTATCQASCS
T1 sequence (P43220 24-463): as the sequence (F8V479 24-463) above, with N112S, S120F, G202S, V205L, F237L, R241W, V249I counted along it

B1: 27 (protein)
chain: HGEGTFTSDLSILLDEEAVRLFIEWLLATGPVSGAPPPSGGGGGGGSGGGGSGGGGSA[… human IgG4 Fc with changes …]GGGSGSAHPIPDSSPLLQFGGQVRQRYLYTDDACQTEAHLEIREDGTVGGAADQSPESLLQLKALKPGVIQILGVKTSRFLCQRPDGALYGSLHFDPEACSFRELLLEDGYNVYQSEAHGLPLHLPGCKSPHRDPAPRGPARFLPLPGLPPAPPEPPGILAPQPPDVGSSDPLSMVYPSQGRSPSYAS
modifications: Fusion Protein
With B1, the values for the EC50 in experiment [1], in experiment [2] and in experiment [3] were 0.0375 nM, 0.091 nM and 0.0751 nM, respectively.

B2: 31 (protein)
chain: HGEGTFTSDLSILLDEEAVREFIEWLLATGPVSGAPPPSGGGGGGGSGGGGSGGGGSA[… human IgG4 Fc with changes …]GGGSGSAHPIPDSSPLLQFGGQVRQRYLYTDDACQTEAHLEIREDGTVGGAADQSPESLLQLKALKPGVIQILGVKTSRFLCQRPDGALYGSLHFDPEACSFRELLLEDGYNVYQSEAHGLPLHLPGCKSPHRDPAPRGPARFLPLPGLPPAPPEPPGILAPQPPDVGSSDPLSMVYPSQGRSPSYAS
modifications: Fusion Protein
B2: the EC50 came to 0.0323 nM in experiment [1], 0.113 nM in experiment [2] and 0.0628 nM in experiment [3].

B3: 45 (protein)
chain: HGEGTFTSDLSIQLDEEAVRLFIEWLEATGPVSGAPPPSGGGGGGGSGGGGSGGGGSA[… human IgG1 Fc with changes …]GGGSGSAHPIPDSSPLLQFGGQVRQRYLYTDDACQTEAHLEIREDGTVGGAADQSPESLLQLKALKPGVIQILGVKTSRFLCQRPDGALYGSLHFDPEACSFRELLLEDGYNVYQSEAHGLPLHLPGCKSPHRDPAPRGPARFLPLPGLPPAPPEPPGILAPQPPDVGSSDPLSMVYPSQGRSPSYAS
modifications: Fusion Protein
Regarding B3, the EC50 came out at 0.0482 nM in experiment [1], 0.492 nM in experiment [2] and 0.0604 nM in experiment [3].

B4: 29 (protein)
chain: HGEGTFTSDLSILLDEEAVREFIEWLLATGPVSGAPPPSGGGGGGGSGGGGSGGGGSA[… human IgG4 Fc with changes …]GGGSGSAHPIPDSSPLLQFGGQVRQRYLYTDDACQTEAHLEIREDGTVGGAADQSPESLLQLKALKPGVIQILGVKTSRFLCQRPDGALYGSLHFDPEACSFRELLLEDGYNVYQSEAHGLPLHLCGNKSPHRDPAPRGPARFLPLPGLPPAPPEPPGILAPQPPDVGSSDPLSMVYPSQGRSPSYAS
modifications: Fusion Protein
Regarding B4, the EC50 in experiment [1] came out at 0.0377 nM; in experiment [2] it was 0.113 nM; in experiment [3], 0.064 nM.

B5: 25 (protein)
chain: HGEGTFTSDLSILLDEEAVRLFIEWLLATGPVSGAPPPSGGGGGGGSGGGGSGGGGSA[… human IgG4 Fc with changes …]GGGSGSAHPIPDSSPLLQFGGQVRQRYLYTDDACQTEAHLEIREDGTVGGAADQSPESLLQLKALKPGVIQILGVKTSRFLCQRPDGALYGSLHFDPEACSFRELLLEDGYNVYQSEAHGLPLHLCGNKSPHRDPAPRGPARFLPLPGLPPAPPEPPGILAPQPPDVGSSDPLSMVGSQGRSPSYAS
modifications: Fusion Protein
As to B5, the figures for the EC50 in experiment [1], in experiment [2] and in experiment [3] were 0.0459 nM, 0.101 nM and 0.0813 nM, respectively.

B6: 44 (protein)
chain: HGEGTFTSDLSIQLDEEAVRLFIEWLEATGPVSGAPPPSGGGGGGGSGGGGSGGGGSA[… human IgG1 Fc with changes …]GGGSGSAHPIPDSSPLLQFGGQVRQRYLYTDDACQTEAHLEIREDGTVGGAADQSPESLLQLKALKPGVIQILGVKTSRFLCQRPDGALYGSLHFDPEACSFRELLLEDGYNVYQSEAHGLPLHLPGCKSPHRDPAPRGPARFLPLPGLPPAPPEPPGILAPQPPDVGSSDPLSMVGSQGRSPSYAS
modifications: Fusion Protein
For B6, the EC50 worked out at 0.126 nM in experiment [1], 0.325 nM in experiment [2] and 0.174 nM in experiment [3].

B7: 43 (protein)
chain: HGEGTFTSDLSILLDEEAVRLFIEWLLATGPVSGAPPPSGGGGGGGSGGGGSGGGGSA[… human IgG1 Fc with changes …]GGGSGSAHPIPDSSPLLQFGGQVRQRYLYTDDACQTEAHLEIREDGTVGGAADQSPESLLQLKALKPGVIQILGVKTSRFLCQRPDGALYGSLHFDPEACSFRELLLEDGYNVYQSEAHGLPLHLPGCKSPHRDPAPRGPARFLPLPGLPPAPPEPPGILAPQPPDVGSSDPLSMVGSQGRSPSYAS
modifications: Fusion Protein
As for B7, the EC50 in experiment [1] is 0.0137 nM; in experiment [2] it was 0.0315 nM; in experiment [3], 0.0174 nM.

B8: 30 (protein)
chain: HGEGTFTSDLSILLDEEAVREFIEWLLATGPVSGAPPPSGGGGGGGSGGGGSGGGGSA[… human IgG4 Fc with changes …]GGGSGSAHPIPDSSPLLQFGGQVRQRYLYTDDACQTEAHLEIREDGTVGGAADQSPESLLQLKALKPGVIQILGVKTSRFLCQRPDGALYGSLHFDPEACSFRELLLEDGYNVYQSEAHGLPLHLPGCKSPHRDPAPRGPARFLPLPGLPPAPPEPPGILAPQPPDVGSSDPLSMVGSQGRSPSYAS
modifications: Fusion Protein
For B8, the concentration giving a half-maximal response (EC50) in experiment [1] stood at 0.042 nM; in experiment [2], 0.125 nM; in experiment [3], 0.0733 nM.

B9: 42 (protein)
chain: HGEGTFTSDLSIQLDEEAVRLFIEWLLATGPVSGAPPPSGGGGGGGSGGGGSGGGGSA[… human IgG1 Fc with changes …]GGGSGSAHPIPDSSPLLQFGGQVRQRYLYTDDACQTEAHLEIREDGTVGGAADQSPESLLQLKALKPGVIQILGVKTSRFLCQRPDGALYGSLHFDPEACSFRELLLEDGYNVYQSEAHGLPLHLPGCKSPHRDPAPRGPARFLPLPGLPPAPPEPPGILAPQPPDVGSSDPLSMVGSQGRSPSYAS
modifications: Fusion Protein
For B9, the EC50 in experiment [1] was 0.0181 nM; in experiment [2], 0.0432 nM; in experiment [3] it was 0.0222 nM.

B10: 46 (protein)
chain: HGEGTFTSDLSILLDEEAVREFIEWLLATGPVSGAPPPSGGGGGGGSGGGGSGGGGSA[… human IgG1 Fc with changes …]GGGSGSAHPIPDSSPLLQFGGQVRQRYLYTDDACQTEAHLEIREDGTVGGAADQSPESLLQLKALKPGVIQILGVKTSRFLCQRPDGALYGSLHFDPEACSFRELLLEDGYNVYQSEAHGLPLHLPGCKSPHRDPAPRGPARFLPLPGLPPAPPEPPGILAPQPPDVGSSDPLSMVGSQGRSPSYAS
modifications: Fusion Protein
Consider B10, for which the EC50 in experiment [1] was found to be 0.00847 nM; in experiment [2] it was 0.0179 nM; in experiment [3], 0.0114 nM.

B11: 26 (protein)
chain: HGEGTFTSDLSILLDEEAVRLFIEWLLATGPVSGAPPPSGGGGGGGSGGGGSGGGGSA[… human IgG4 Fc with changes …]GGGSGSAHPIPDSSPLLQFGGQVRQRYLYTDDACQTEAHLEIREDGTVGGAADQSPESLLQLKALKPGVIQILGVKTSRFLCQRPDGALYGSLHFDPEACSFRELLLEDGYNVYQSEAHGLPLHLPGCKSPHRDPAPRGPARFLPLPGLPPAPPEPPGILAPQPPDVGSSDPLSMVGSQGRSPSYAS
modifications: Fusion Protein
As to B11, the EC50 in experiment [1] is 0.0401 nM; in experiment [2] it was 0.0953 nM; in experiment [3], 0.0733 nM.

B12: 28 (protein)
chain: HGEGTFTSDLSILLDEEAVREFIEWLLATGPVSGAPPPSGGGGGGGSGGGGSGGGGSA[… human IgG4 Fc with changes …]GGGSGSAHPIPDSSPLLQFGGQVRQRYLYTDDACQTEAHLEIREDGTVGGAADQSPESLLQLKALKPGVIQILGVKTSRFLCQRPDGALYGSLHFDPEACSFRELLLEDGYNVYQSEAHGLPLHLCGNKSPHRDPAPRGPARFLPLPGLPPAPPEPPGILAPQPPDVGSSDPLSMVGSQGRSPSYAS
modifications: Fusion Protein
B12: the EC50 in experiment [1] is 0.0329 nM; in experiment [2] it was 0.107 nM; in experiment [3], 0.0687 nM.

B13: 229 (protein)
chain: HGEGTFTSDKSKQLEKRLVRLFYEWLIAGGHSSGKPPPKGGGGGGGSGGGGSGGGGSA[… human IgG1 Fc with changes …]GGGSGSAHPIPDSSPLLQFGGQVRQRYLYTDDACQTEAHLEIREDGTVGGAADQSPESLLQLKALKPGVIQILGVKTSRFLCQRPDGALYGSLHFDPEACSFRELLLEDGYNVYQSEAHGLPLHLPGCKSPHRDPAPRGPARFLPLPGLPPAPPEPPGILAPQPPDVGSSDPLSMVYPSQGRSPSYAS
modifications: Fusion Protein
As for B13, the concentration for a half-maximal effect (EC50) in experiment [1] was 0.0629 nM; in experiment [2], 0.47 nM; in experiment [3], 0.0821 nM.
